Source: PubChem BioAssay AID759 (NMMLSC, 2007)
The campaign covered roughly 190,000 compounds. About 270 (0.14%) were called active. Inconclusive means that the source gave no clear call. Such entries were picked first, then a sample of the others.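 Rule for the calls: active = GTP binding activity at least 20% away from the 100% baseline, either lowered as inhibitor or raised as activator; inconclusive = flagged as likely green fluorescent, judged across all proteins in the well; inactive = the rest.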

target: GTPase HRas (Homo sapiens) (UniProt P01112); experiment: HRas wt fluorescent GTP binding changes, either direction – biochemical, wildtype, bead-based flow cytometry, multiplex, primary screen (AID 759); details: GST-Ras wt beads, Bodipy-FL-GTP binding, at 10 µM, actives lie on both sides;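 note: 0% = unlabeled GTP competition control and 100% = no-compound control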
Sequence of UniProt P01112 (P01112 whole entry, looked up): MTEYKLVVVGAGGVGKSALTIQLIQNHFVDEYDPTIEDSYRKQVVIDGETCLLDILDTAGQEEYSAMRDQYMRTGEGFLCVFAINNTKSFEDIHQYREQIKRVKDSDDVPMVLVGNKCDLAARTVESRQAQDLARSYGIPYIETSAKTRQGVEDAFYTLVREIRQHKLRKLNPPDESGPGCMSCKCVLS

GTP binding activity, active:
O=C(Nc1cccc(Cl)c1)Nc1ccnc(-c2cccnc2)n1 67%
CC(=O)Nc1ccc(/C=N/NC(=O)CCN2CCN(c3ccccc3)CC2)cc1 79%
Cc1cc(C)n2nc(SCCOc3ccccc3F)nc2n1 71%
O=c1[nH]c2sc3c(c2c2nncn12)CCCC3 78%
NC(=S)N=Nc1c(O)[nH]c2c(Br)cc(Br)cc12 75%
CCOc1ccc(C2=Nn3c(nnc3-c3ccco3)SC2)cc1 77%

GTP binding activity, inconclusive:
CC(=O)CSc1nnc(-c2ccncc2)n1C 104%
N#Cc1c(OCC(=O)c2ccccc2)nc2c(c1-c1ccco1)CCc1ccccc1-2 103%
COc1cccc(-n2c(SCC(=O)NC3CCCCC3)nc3n[nH]c(C)c3c2=N)c1 87%
COC(=O)Cc1csc(NC(=O)CSc2nnc3ccccn23)n1 94%
O=C1C=C(N(CCO)Cc2ccccc2)c2ccccc2C1=O 93%
Cn1cc([C@@H]2C[C@H]3CN(Cc4cccc(Cl)c4)C(=O)[C@]34CCCN24)c2ccccc21 114%
Nc1c(C(=O)NC2CC2)sc2nc3c(c(-c4ccco4)c12)CC/C3=C/c1ccco1 88%
COc1ccc(C(=O)NC(=S)NNC(=O)CNC(=O)C2CCCCC2)cc1 90%
Cc1cc(C)nc(SCC(=O)c2c(N)n(C)c(=O)n(C)c2=O)n1 97%
CCN(CC)CC(=O)Nc1ccc2c(c1)Nc1ccccc1CC2 102%
COc1ccc(N2CCN(C(=O)c3ccc4c(=O)n(CC5CCCO5)c(=O)[nH]c4c3)CC2)cc1 (centres undefined) 101%
O=C(CO/N=C1\CCCc2nonc21)Nc1ccc(Br)cc1 95%
CCOC(=O)c1cc2sc(C)cc2n1CC(=O)Nc1ccc2c(c1)OCCO2 98%
COc1cnc(-c2ccccn2)nc1Sc1ccc(Cl)cc1 106%
Cc1[nH]n(-c2ccc([N+](=O)[O-])cc2)c(=O)c1C=NCCN1CCN(C(=O)c2cccc(F)c2)CC1 105%
C/C(=N\N=C1\NC(=O)C(CC(=O)Nc2ccc(Cl)cc2)S1)c1ccco1 (centres undefined) 90%
COc1ccc(-c2ncncc2-c2csc(C)n2)c(O)c1OC 105%
CCOC(=O)c1c[nH]c2nc(C)ccc2c1=O 93%
C=C(C)Cn1c(-c2ccncc2)n[nH]c1=S 90%
O=C(COC(=O)c1cccs1)NC1CCCCC1 109%
O=C(CSc1ncc(-c2ccc(F)cc2)n1Cc1ccco1)Nc1ccc2c(c1)OCO2 87%
Cn1nc(C(F)(F)F)c(C(=O)Nc2cccc(Cl)c2)c1Cl 98%
COc1ccccc1N1CCN(C(c2ccccc2Cl)c2nnnn2C(C)(C)C)CC1 (centres undefined) 88%
CCOC(=O)CCc1c(C)nc(SCC(=O)O)c(C#N)c1C 103%
COc1ccc(-c2nnc(SCC(=O)N3CCCC(C)C3)o2)c(OC)c1 (centres undefined) 103%
COc1ccc(N2CCN(Cc3ccc(Br)s3)CC2)cc1 102%
N#Cc1c(N)oc(-c2ccco2)c1-c1ccco1 91%
CCS(=O)(=O)Nc1cccc(C(=O)CC2(O)C(=O)Nc3ccccc32)c1 (centres undefined) 101%
CSc1nc(C)cc(SC(C(C)=O)C(=O)Nc2ccccc2)n1 (centres undefined) 98%
Cc1c(N)cccc1-n1cccc1 98%
O=C(Nc1nc2ccccc2[nH]1)c1ccc(Cl)c(S(=O)(=O)N2CCCC2)c1 94%
COc1ccc2c(c1)CC/C(=C/c1ccncc1)C2=O 96%
CC(C)(C)c1ccc(CNc2cc(N3CCOCC3)ccc2[N+](=O)[O-])cc1 94%
CCCCOc1ccc(S(=O)(=O)NNC(=O)c2cc3ccccc3o2)cc1 94%
Cc1cccc(C(=O)Oc2ccc(/C=N/O)cc2)c1 100%
COc1ccc(-c2cc(C(=O)Oc3ccc([N+](=O)[O-])cc3)c3ccccc3n2)cc1 93%
Cn1c(N)c(C(=O)COC(=O)CCCOc2ccc(Cl)cc2Cl)c(=O)n(C)c1=O 88%
CC(C)Cc1nnc(NC(=O)CCC(=O)N2CCN(S(=O)(=O)c3ccccc3)CC2)s1 104%
COC(=O)CN1C(=O)CC(C)(C)S(=O)c2ccccc21 (centres undefined) 102%
Cc1ccc(NC(=O)c2ccccc2F)cc1S(=O)(=O)N1CCCCCC1 92%
COC(=O)C(F)(F)Sc1c(C)[nH]c2ccccc12 102%
CC1Cc2ccccc2N1C(=S)NC(=O)C1(C)CC1(Cl)Cl (centres undefined) 98%
C/C(=N\NC(=O)c1cccc(N/N=C(\C)c2cc(O)ccc2O)c1)c1cc(O)ccc1O 81%
COc1ccc(Cl)cc1NC(=O)C/C(C)=N/NC(=O)Cc1ccccc1 95%
CCNCc1cc(OCC)c(OCC(=O)NCCc2ccccc2)cc1Cl 108%
CN(Cc1ccc(-n2cccn2)cc1)Cc1cn(C)nc1-c1ccccc1F 92%
CC1=Nc2ccccc2/C1=C\c1sc(Nc2ccc(C)cc2)nc1O 94%
CSCC[C@H](NC(=O)NCc1ccc(F)cc1)C(=O)O 108%
CC(=O)N1CCc2cc(Br)cc(S(=O)(=O)N3CCN(C(=O)c4ccco4)CC3)c21 107%
C=CCc1ccccc1OCC(O)CN1CCN(C(=O)OCC)CC1 (centres undefined) 120%
COc1ccc(-n2c(C)cc(/C=C3\SC(=S)N(Cc4ccco4)C3=O)c2C)cc1 132%
O=C(NCC1CCN(c2ccc(S(=O)(=O)N3CCOCC3)cc2)CC1)c1cccc(Cl)c1 103%
CCC(=O)Nc1cc(C(=O)OCC(=O)c2ccc(Cl)cc2Cl)ccc1C 103%
CC(C)n1cc(/C=C2\NC(=O)N(c3cccc(Cl)c3)C2=O)c2ccccc21 106%
NC(=O)C(=O)N/N=C/c1c[nH]c2ccc(Br)cc12 91%
Cc1csc(NC(=O)c2cc(-c3ccncc3)nc3ccccc23)n1 94%
COc1ccc(C2CC(c3cccs3)=NN2C(=O)CSc2nncs2)cc1OC (centres undefined) 94%
CCOC(=O)N1CCN(Cc2cn[nH]c2-c2cc3ccccc3o2)CC1 60%

GTP binding activity, inactive:
O=C(c1ccc2c(c1)OCO2)C1CCCN(C2CCN(CCc3ccccc3)CC2)C1 (centres undefined) 98%
Cn1c(=O)[nH]c(=O)c2c1nc(Br)n2CC(O)COc1ccc(Cl)cc1 (centres undefined) 99%
Cc1ccc(CN2CCN(Cc3cn[nH]c3C3CCCCC3)CC2CCO)cc1 (centres undefined) 97%
O=C(COCC(=O)N1CCOCC1)N1CCOCC1 97%
CC(Oc1ccccc1)C(=O)N1CCN=C1SCc1ccccc1 (centres undefined) 98%
CC1(/[N+]([O-])=C/c2ccccc2F)CCCCC1=O (centres undefined) 98%
NC(=O)COC(=O)CSc1ccc2ccccc2c1 96%
CC(=O)NC1C(Oc2ccc3c(C)cc(=O)oc3c2)OC(COC(C)=O)C(OC(C)=O)C1OC(C)=O (centres undefined) 97%
CC(=O)Nc1ccc(/C=C/c2ccc3c([N+](=O)[O-])cccc3n2)cc1 94%
O=C(Nc1cccc([N+](=O)[O-])c1)Nc1ccc2c(c1)OCCO2 96%
O=C(NCc1cccs1)C1CC(=O)N(c2ccc(Cl)cc2)C1 (centres undefined) 100%
Clc1ccc(Cn2ncc3c(N4CCOCC4)ncnc32)cc1 97%
O=C1CN(C(=O)Cn2ncc(Cl)c(Cl)c2=O)c2ccccc2N1 97%
COc1ccccc1OCC(=O)NCCSCc1cccc(Cl)c1 97%
CCC(=O)N1CCc2cc(Br)cc(S(=O)(=O)N(C)c3ccc(OC)cc3OC)c21 97%
Cc1cc(C)cc(NC(=O)c2c(C)nc3ccccn23)c1 99%
CCCn1nc([N+](=O)[O-])c(C(C#N)c2nc3ccccc3o2)c(Cl)c1=O (centres undefined) 98%
CCOC(=O)C1CCN(C(=O)c2cc3ccccc3oc2=O)CC1 97%
S=c1[nH]nc(-c2ccco2)n1-c1ccccc1Cl 84%
Fc1ccc(-c2n[nH]c(=S)c3ccccc23)cc1 96%
CCOP(=O)(OCC)C(Nc1ccc(OC)cc1)c1ccco1 (centres undefined) 99%
COc1ccc(OC)c(N2CC(O)(c3cccs3)[N+]3=C2SCCC3)c1 (centres undefined) 101%
CO/N=C(\C(=O)O)c1csc(NN=C(C)C)n1 97%
COc1cccc(N2CCN(C(=O)CSc3ccc(F)cc3)CC2)c1 100%
Cc1ccc(SCC(=O)Nc2cc([N+](=O)[O-])ccc2O)cc1 94%
CCC(C)/C(C)=N/NC(=O)CNS(=O)(=O)c1ccc([N+](=O)[O-])cc1 (centres undefined) 102%
NC(=O)c1c(NC(=O)c2cnccn2)sc2c1CCCC2 83%
CC(=O)c1sc(NC(=O)CCCOc2ccc(Cl)cc2)nc1C 105%
C/C=C/c1cc(CN2CCN(c3ccc(OC)cc3)CC2)c(O)c(OC)c1 97%
O=C(/C=C/c1ccccc1)NC1CCCc2ccccc21 (centres undefined) 97%
